Results as given in paper PMC4336329 (PLoS ONE, 2015).
The whole screen tested about 310,000 compounds, of which about 2,200 (0.71%) showed an effect of 50% or more. The effect is printed as a negative number. Some of the results follow.

The molecules below were run against human ether-à-go-go-related gene (hERG) potassium channel (human, UniProt Q12809) (assay: primary screen, population patch clamp on CHO cells stably expressing hERG).
Sequence of human ether-à-go-go-related gene (hERG) potassium channel (Q12809 whole entry, looked up): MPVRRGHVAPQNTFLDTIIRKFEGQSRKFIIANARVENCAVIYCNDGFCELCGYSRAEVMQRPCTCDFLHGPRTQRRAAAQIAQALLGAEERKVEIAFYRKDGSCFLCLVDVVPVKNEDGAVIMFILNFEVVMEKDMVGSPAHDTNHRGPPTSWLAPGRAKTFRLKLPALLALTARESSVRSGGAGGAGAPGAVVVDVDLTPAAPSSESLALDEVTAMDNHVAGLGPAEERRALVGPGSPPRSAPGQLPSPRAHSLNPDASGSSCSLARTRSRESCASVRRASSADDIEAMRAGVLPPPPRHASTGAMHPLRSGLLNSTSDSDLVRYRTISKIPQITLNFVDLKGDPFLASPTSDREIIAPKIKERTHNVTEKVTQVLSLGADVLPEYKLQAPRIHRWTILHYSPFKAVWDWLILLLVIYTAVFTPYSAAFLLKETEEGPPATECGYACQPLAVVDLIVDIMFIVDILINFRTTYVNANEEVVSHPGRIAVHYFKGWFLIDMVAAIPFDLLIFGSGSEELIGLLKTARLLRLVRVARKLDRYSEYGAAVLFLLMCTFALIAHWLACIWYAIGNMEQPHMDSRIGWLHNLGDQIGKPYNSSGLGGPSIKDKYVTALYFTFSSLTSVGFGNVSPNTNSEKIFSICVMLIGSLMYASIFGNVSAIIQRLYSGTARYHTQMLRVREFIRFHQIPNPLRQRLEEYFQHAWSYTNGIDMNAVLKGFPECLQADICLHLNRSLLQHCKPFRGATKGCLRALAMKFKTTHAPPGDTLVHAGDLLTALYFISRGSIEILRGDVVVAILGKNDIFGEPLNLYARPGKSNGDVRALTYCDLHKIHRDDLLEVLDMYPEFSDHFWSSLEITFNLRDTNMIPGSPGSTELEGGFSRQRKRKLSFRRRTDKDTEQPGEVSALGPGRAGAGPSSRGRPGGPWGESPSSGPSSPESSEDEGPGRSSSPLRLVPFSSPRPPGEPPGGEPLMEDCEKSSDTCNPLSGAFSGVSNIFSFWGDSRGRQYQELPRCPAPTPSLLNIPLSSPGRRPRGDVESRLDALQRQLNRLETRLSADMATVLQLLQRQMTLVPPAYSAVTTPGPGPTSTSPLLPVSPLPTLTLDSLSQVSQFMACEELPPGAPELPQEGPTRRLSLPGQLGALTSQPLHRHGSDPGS

Row | SMILES | hERG current change (%, negative = inhibition) at 1uM [%]
1 | COc1ccc(C(=O)N/C(=C/c2ccco2)C(=O)NCc2ccco2)cc1 | -0.769
2 | CN(C(=O)c1ccc(NC(=O)Cc2cccc(NC(=O)C3CCN(C(=O)C4CCCCC4)CC3)c2)cc1)C1CCCC1 | 11.3
3 | COc1cc(Br)c(S(=O)(=O)Nc2c(C)n(C)n(-c3ccccc3)c2=O)cc1OC | 11.1
4 | O=C(Cn1nc(-c2ccccc2)ccc1=O)N1CCC2(CC1)OCCO2 | 6.55
5 | Cn1c(=O)c2c(O)cc(=O)n(-c3ccccc3)c2n(C)c1=O | 8.25
6 | CCOc1ccc(C(=O)NCC(=O)N2CCCCCCC2)cc1OCC | 10.3
7 | O=C(Nc1nc2ccccc2s1)c1ccc([N+](=O)[O-])o1 | 16.3
8 | Cc1c(NC(=O)CC(=O)Nc2c(C)n(C)n(-c3ccccc3)c2=O)c(=O)n(-c2ccccc2)n1C | 8.7
9 | CCCCN(CC)S(=O)(=O)c1ccc2c(c1)n(C)c(=O)c(=O)n2C | -13.2
10 | O=C(Oc1ccccc1N1C(=O)C2CC=CCC2C1=O)c1ccc(Br)cc1 (stereo not drawn) | 4.86
11 | CCOC(=O)Cn1nnnc1C(CC)N(Cc1cccs1)Cc1cc2cc(C)ccc2[nH]c1=O (stereo not drawn) | 2.11
12 | COc1cc2[nH]c(=S)n(NC(=O)c3ccccc3)c(=O)c2cc1OC | 1.63
13 | Cc1[nH][nH]c(=O)c1C(c1ccc(Cl)cc1)c1c(C)[nH][nH]c1=O | 12.5
14 | CCC(C)NC(=O)Cn1c(-c2ccccc2)cc(C(C)=O)c1C (stereo not drawn) | 5.71
15 | COc1ccc(CC(=O)OCC(=O)NCc2ccccc2Cl)cc1OC | 8.74
16 | Cc1cc(-c2ccc(C(C)C)c(S(=O)(=O)N3CCN(c4ccccc4)CC3)c2)on1 | -1.54
17 | O=C(c1ccc(S(=O)(=O)Nc2cccc(C(F)(F)F)c2)cc1)N1CCC1 | 13.8
18 | CCCC(=O)Nc1cc(-c2nc3ncccc3o2)ccc1Cl | 12
19 | O=C(c1cnc(-c2ccc(Cl)cc2)s1)c1ccc(Cl)cc1Cl | 14.1
20 | CCOCCOC(=O)CCSc1n[nH]c(=O)[nH]c1=O | 1.89
21 | Cc1ccc(C(=O)Nc2ccccn2)cc1S(=O)(=O)N1CCOCC1 | 2.03
22 | Cc1ccc2c(C)nc(N/C(N)=N/S(=O)(=O)c3ccccc3)nc2c1 | 9.49
23 | CCOC(=O)c1c(NC(=O)COC(=O)c2ccc(Cl)nc2)sc(C(=O)N(C)C)c1C | 9.71

Row | SMILES | hERG current change (%, negative = inhibition) at 1uM [%]
24 | Cc1scc2c1N(C(=O)CN1CCN(C)CC1)c1ccccc1NC2=O | 16.5
25 | COc1cc(C=O)ccc1OCCCOc1ccccc1C(=O)O | 14.3
26 | CCOC(=O)C1=C(c2ccccc2)NC(=S)NC1c1ccc(Cl)c([N+](=O)[O-])c1 (stereo not drawn) | 4.66
27 | COc1cc2c(cc1OC)C(C)N(S(=O)(=O)c1ccc(C)cc1)CC2 (stereo not drawn) | 3.68
28 | CCc1nc(SCc2cccnc2)c2c(=O)n(C)c(=O)n(C)c2n1 | -4.84
29 | CC1CCN(c2nc3ccc(C(=O)NCCCN4CCCCC4C)cc3s2)CC1 (stereo not drawn) | -13.1
30 | COc1ccc(S(=O)(=O)NC(C)C)cc1C(=O)N1CCOCC1 | -4.16
31 | O=C(c1ccc(N2CCCCS2(=O)=O)cc1)N1CCN(c2ccccc2F)CC1 | 10.1
32 | COc1ccc(N2CCN(C(=O)Nc3ccccc3C)CC2)cc1 | 4.9
33 | C#CCNC(=O)C1=C[C@H](C)C[C@H](OCc2ccc(CO)cc2)O1 | 12.4
34 | CC(=O)Oc1ccc(NC(=O)Cc2ccccc2)cc1 | 16.2
35 | CCCCOC(=O)c1ccc(NC(=O)C(CCS(C)(=O)=O)NC(C)=O)cc1 (stereo not drawn) | -5.37
36 | COc1ccc(-c2cc(NCc3ccccn3)n3ncnc3n2)cc1 | -5.47
37 | CCOc1ccccc1CNn1cnnc1 | 6.93
38 | O=C(N/N=C/c1cc(Br)cs1)c1ccc2c(c1)OCCO2 | 9.48
39 | CNC(=O)c1c[nH]c2ccc(S(=O)(=O)Nc3ccccc3F)cc2c1=O | 14.7
40 | O=C(N=Nc1c(O)[nH]c2ccc([N+](=O)[O-])cc12)c1ccccc1[N+](=O)[O-] | 2.75
41 | O=C(CN(Cc1ccccc1Cl)C(=O)CN1C(=O)CSc2ccccc21)NC1CC1 | -30.7
42 | O=C(COc1ccc(/C=N/NC(=O)C(=O)N2CCCCCC2)cc1)Nc1ccccc1Cl | 7.53
43 | CC(O)[C@H]1CNC(=O)C(=O)N1CC(C)(C)C (stereo partly drawn) | 7.59
44 | CCn1c(/C(C#N)=N/O)nc2ccccc21 | 6.1
45 | CCCCOc1ccc(C(=O)Nc2ccc(S(=O)(=O)Nc3onc(C)c3C)cc2)cc1 | 16.3
